The list shows a part of the results. At the low end of the ranking, values are background and their order means little. The protein was read in a cell extract, so binding may be indirect.

For this test, the target named is T1, HNF4alpha2 (COS-7 nuclear extract) (UniProt P41235).
T1 sequence: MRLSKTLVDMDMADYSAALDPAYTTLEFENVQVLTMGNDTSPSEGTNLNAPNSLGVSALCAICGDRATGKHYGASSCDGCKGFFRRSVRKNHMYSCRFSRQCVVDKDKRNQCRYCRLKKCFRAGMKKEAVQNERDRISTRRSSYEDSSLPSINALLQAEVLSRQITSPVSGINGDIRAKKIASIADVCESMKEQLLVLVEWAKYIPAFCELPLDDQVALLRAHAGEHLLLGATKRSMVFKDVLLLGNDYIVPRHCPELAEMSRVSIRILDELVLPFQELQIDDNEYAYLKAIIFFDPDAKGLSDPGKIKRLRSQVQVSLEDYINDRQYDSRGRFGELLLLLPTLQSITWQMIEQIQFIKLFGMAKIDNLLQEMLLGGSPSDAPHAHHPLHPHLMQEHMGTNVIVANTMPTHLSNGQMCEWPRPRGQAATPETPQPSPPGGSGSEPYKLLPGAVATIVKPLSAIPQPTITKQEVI
Briefly: protein-binding microarray. The following applies: COS-7 nuclear extract on double-stranded Agilent 4x180k PBM; binding buffer, salt, pH and temperature not given; high values mean tight binding; double strand, one strand shown; sequences stand for … in …GCCTAGGGAGATTAGAGTATCGGTCGA
As for TCTGCAGCAGATGGCCAGCCTTTGGACTTT, the binding signal (log2 normalized intensity) amounted to 7.15.

As to AGTAGCTCACAAATACTCACCCTTGGATTA, the binding signal (log2 normalized intensity) came out at 0.457.

With CCAAGGCTGAAGGTCTCGAGGCCTCTTTAT, the binding signal (log2 normalized intensity) was -0.871.

Take CTGATCAAAGGTCATTGGTATTGATAGCGC: the binding signal (log2 normalized intensity) worked out at 4.8.

With CCAATGTGGAGCTGCTGAACTATTGAACCA, the binding signal (log2 normalized intensity) is 2.66.

CCTGTGTGCATGGAGTGCACTGTGATCTTT: the binding signal (log2 normalized intensity) is 3.48.

Turning to TAGAATGGAACTGAAGGCAGGAAAGGGCCT, the binding signal (log2 normalized intensity) was -0.886.

As for AAACGGATGCAAAGGCTGAGCCCTTATCTT, the binding signal (log2 normalized intensity) is -1.12.

Take AGTTGTTCAAAGTCCATGTGTTAAATAATA: the binding signal (log2 normalized intensity) was determined as 3.49.

Consider GGAATTCTCTTCCCAACAGGAGATTACTTC, for which the binding signal (log2 normalized intensity) is -1.16.

On to TGAAGACACTGAGGAAAAGCTGTCTACAAA, for which the binding signal (log2 normalized intensity) is -0.747.

As for ACAGGTTGGAGACGCAGAGAAGCACTGCAG, the binding signal (log2 normalized intensity) was -1.09.

On to CTTTACCACCCTCACAGCTCAATCCAACAA, for which the binding signal (log2 normalized intensity) was -1.01.

Take AGAAGGGGACAAGCACATTAGGAGGAAAAA: the binding signal (log2 normalized intensity) was -1.11.

CCTCTGTTGCTTCAAAGGGCAAAAGGGCAA: the binding signal (log2 normalized intensity) came to 5.03.

Take CAACAACACAGATCATATCATTTATTTGCT: the binding signal (log2 normalized intensity) is -1.06.

As for ACTTGCGGGCGGGGGGTGGGGTGGAAGCTA, the binding signal (log2 normalized intensity) was -1.09.

Regarding CCTCCCCCTGGGGACAGGTGTTAATGTCTA, the binding signal (log2 normalized intensity) stood at 1.48.

Take TGTGGTGTTCGCTAAGATGTAGCAAGAATG: the binding signal (log2 normalized intensity) stood at 1.28.

With ACGTTCACGTCTCAAGCTTCAGGAGTCCAC, the binding signal (log2 normalized intensity) stood at 2.07.

As for CCTGCAACAGCCCCATGAGATAGGTACTAT, the binding signal (log2 normalized intensity) was -0.519.

Turning to TGTCCCCCAGGTCCAGCCTTTGGGCAGGGG, the binding signal (log2 normalized intensity) is 2.37.

For AGGCAGGAGTTAACTAACAAAAGCAGAGGA, the binding signal (log2 normalized intensity) is -1.21.

Regarding ACTCCTCTATCAGTACAAATAAACCTTTGA, the binding signal (log2 normalized intensity) stood at 3.51.

On to GCTGCCTCCTATCCTCTGATCCCCAGGTCA, for which the binding signal (log2 normalized intensity) was 2.32.

TGTCATCTCTGGCTAACAGGTCAGGGGCTC: the binding signal (log2 normalized intensity) was 0.92.

On to ACTCAGTGGGGTGTCTGTGTGCCTCAGATT, for which the binding signal (log2 normalized intensity) stood at 1.6.

Take GGTGGACTTTGTAGCTCAAACAGTCTAAAA: the binding signal (log2 normalized intensity) is 2.3.

Regarding TGAACCTTCTTCTTGCAGTCCACATTTCTG, the binding signal (log2 normalized intensity) was determined as 1.52.

Turning to ATAAGAACGCTAGACACTGGGGACTAGTAG, the binding signal (log2 normalized intensity) is -1.21.

TGGCTAATAGATGGCGCAGCGGGTCAATTA: the binding signal (log2 normalized intensity) was determined as 1.92.

Turning to ATAAGCCCTGAGTAGTTCTTCTGGTTAGTT, the binding signal (log2 normalized intensity) is 1.55.

Consider AGCTGGGCCTGTGCTGGGGACAAAAGCTGA, for which the binding signal (log2 normalized intensity) was -0.959.

Consider AAGTTAACTTTGTAACTAACAACTGACCTT, for which the binding signal (log2 normalized intensity) was 3.5.

On to GGTAGCCTGGGTTAAAGTCCGTTACAGACA, for which the binding signal (log2 normalized intensity) amounted to 3.68.

Consider CAAACCAAAGAGAAATGGTGTGGACAGCAG, for which the binding signal (log2 normalized intensity) is -1.11.

Consider TGTTAGCAGAAACCATCTGGCTTGGCCCCC, for which the binding signal (log2 normalized intensity) is 3.89.

As to AATTGTGGCTTGTGTAGTTATCCAGTAACA, the binding signal (log2 normalized intensity) came out at 1.23.

On to GTGGGGCAGAAAGGGCATGGATTTAGATAA, for which the binding signal (log2 normalized intensity) was -1.01.

Turning to TACATAGAGGGGGTCTAGGTTGGAGGAGCT, the binding signal (log2 normalized intensity) was -0.921.

As for AGTGGAAGGTATGGAGCTAAACAATTAAAG, the binding signal (log2 normalized intensity) was -1.06.

On to ATGGGCACCTCGTCCAGGTGTCTTCAGGCT, for which the binding signal (log2 normalized intensity) was -1.19.

Consider GAGAATCCACCTGCCTGCTTGGCCTCTCCA, for which the binding signal (log2 normalized intensity) is -1.1.

Turning to TCTGCCGCTGCGCCACAGCACCACCTGCTG, the binding signal (log2 normalized intensity) is -1.11.

On to TTAGTCCCAGTATGGTCTCAGTAATGACAT, for which the binding signal (log2 normalized intensity) amounted to 0.986.

Regarding TTTCACAAGTTTAGCCAAGCAAACAAGTTC, the binding signal (log2 normalized intensity) is -1.18.

Consider TGAATGGACTCTGCCCTTAGCAGTGGGAGA, for which the binding signal (log2 normalized intensity) came out at 3.86.

For the sequence ATGAAGATATATTCCTTCAGGAAGGCCTGT, the binding signal (log2 normalized intensity) worked out at 0.708.

As for GTATGTTCTTAAGATAAGGACTGTTGGACC, the binding signal (log2 normalized intensity) was found to be 3.33.

As for AAAGCAACAAAAACCAAATCACAATTTTCA, the binding signal (log2 normalized intensity) is -1.15.

In the case of CTTACATGGGTTAGGAGGATGACAAAGAGC, the binding signal (log2 normalized intensity) was determined as 0.699.

In the case of TTTTTGTGTGTGTGTCAGAGACCCAGAAAA, the binding signal (log2 normalized intensity) came to 1.8.

Regarding GGCAATTGATAATGATGTTTACATTCCAGA, the binding signal (log2 normalized intensity) stood at 1.13.

Take TTGGTTTCCTACGGCTGCTGTAACAAGTGG: the binding signal (log2 normalized intensity) was found to be 0.414.

In the case of TACAAAGTTCACTTTCTTGTTTACTCACCT, the binding signal (log2 normalized intensity) was 1.12.

In the case of GAGGTACCTAGGGGACATTCTTTAGAGGCT, the binding signal (log2 normalized intensity) is -1.11.

As to ATTACATCCAGAGTGGGACAAAGTTCCCCG, the binding signal (log2 normalized intensity) is 1.83.

As to CTTTTTGACCTTGCAGTGGCAAGGCAAAAG, the binding signal (log2 normalized intensity) came out at 1.56.

Consider TGCAGTGTGTCTCCAGGAGCAATCATCGCA, for which the binding signal (log2 normalized intensity) was -0.942.

For the sequence GTACTTCAACCAGGTTCTCTTTACTGAACG, the binding signal (log2 normalized intensity) is 1.56.

Consider GCAGGAATGCTGAACAATTGATTTATAGCC, for which the binding signal (log2 normalized intensity) was -1.13.

With CCCGTGTAGACACTCATCCCTTGCACTGCT, the binding signal (log2 normalized intensity) is -0.893.

TTCTGAGTTGCATGAATTTATCTAAGTAGA: the binding signal (log2 normalized intensity) came to 1.26.

As for CTGTTTGGTATCTACTCGGCAAAACGGAGA, the binding signal (log2 normalized intensity) was found to be 0.121.

On to TCGGAATGTCTGGGCAAAGGGGAGGTTATC, for which the binding signal (log2 normalized intensity) came to 0.29.

For the sequence AGGTCAGCTTGTCCAGAGTAGGCTTGCAAG, the binding signal (log2 normalized intensity) was -0.765.

Turning to CTCTCGTCACCTCCACCCACCCGTGCATCA, the binding signal (log2 normalized intensity) is 4.68.

Regarding TACTTCCTTCACTCTGGGGCAATAACCCTA, the binding signal (log2 normalized intensity) was -0.0505.

GCTCAAAATAGGCAAGACTGCCACCTACTG: the binding signal (log2 normalized intensity) is -1.23.

With CATCTGAGACTAACTGCATTTTGGAGATAA, the binding signal (log2 normalized intensity) is -0.107.

TCAAAATATAAGGTCCAACTGACATCTGGA: the binding signal (log2 normalized intensity) came to 1.25.

On to GCTTTAAGAGGAATGCTTTGAGCCAGAATC, for which the binding signal (log2 normalized intensity) was -0.81.

Turning to TTGAGTGACCTTGGGCCAGTCGCTTAACCT, the binding signal (log2 normalized intensity) was determined as 1.67.

On to AAAGTGGAAGAATGGGAAATTCCATCCTAG, for which the binding signal (log2 normalized intensity) was -1.13.

Take CTTGGCCCCCGGACCCAAAGTAAACAAAGA: the binding signal (log2 normalized intensity) is 3.5.

As to TCAGTGCAATCACGCCTCAAATGAGCTTTT, the binding signal (log2 normalized intensity) is -1.13.

For GCCTTGCTGCGGATCAAAGGAGCTGGGCCT, the binding signal (log2 normalized intensity) is -1.1.

With GTAAACATAGCAGAAGACCCTTGGCCTCTA, the binding signal (log2 normalized intensity) amounted to 3.42.

Take GGGCTGGCTCAGGACAGGTGAGCCCGGCAG: the binding signal (log2 normalized intensity) was -1.03.

GTTAAGTCATTGATGAAACTCCTTCCCTTT: the binding signal (log2 normalized intensity) amounted to 1.25.

Turning to CCCACATCCTGTCAGACCAAGGCTGCTTAA, the binding signal (log2 normalized intensity) was -1.18.

For the sequence ATTGGGGGAGGGTAGTCTATCTCATTACTA, the binding signal (log2 normalized intensity) is -1.28.

As to CTTTCCTCCCACCTTCGAGCTTCACCTTTG, the binding signal (log2 normalized intensity) amounted to 1.58.

On to AGAGAGCAATCATGCACCTGCGGATAATCA, for which the binding signal (log2 normalized intensity) was -1.24.

ACAACGCCAAGGACCGCCAAGGAAGCGATG: the binding signal (log2 normalized intensity) was -1.15.

Regarding AAGAACACAGTGTAGAAGGCAAGGGTCAAG, the binding signal (log2 normalized intensity) came to 1.87.

As for CTGTGCTGCCCTTTGCCCTTTGGGAAGGGG, the binding signal (log2 normalized intensity) came to 5.8.

Consider TCCTGGTCAGACTTGCCACGGAATCCCAGT, for which the binding signal (log2 normalized intensity) is -1.09.

Take GACTAGACAGGCTTGTCGAGGACAGGATGG: the binding signal (log2 normalized intensity) was -0.822.

Consider GTTCCGCGGTCCGCAGCGCTGGTGGCTGCA, for which the binding signal (log2 normalized intensity) is -0.919.

As to GCCTGGCTAAAACCCTGGCCACTCCCTGAT, the binding signal (log2 normalized intensity) was -1.11.

In the case of CTCATGTGGTCCTAAAATTGACCTTTGATC, the binding signal (log2 normalized intensity) was 10.5.

CTGAACAGGGTCAGTGCAATCACGCCTCAA: the binding signal (log2 normalized intensity) was -1.12.

For the origin of these results see PMC10726135.
